{
  "source": "PubChem BioAssay (NCATS)",
  "note": "This is one part of the list. The main result of the screen is listed elsewhere. These columns were measured beside it and carry no call. Most of these compounds were active or inconclusive in the main read-out, so they are no random draw. Potencies come from curve fits of mixed quality, noted in brackets. Tags describe the fitted curve by direction and shape.",
  "data": [
    {"target": "Histamine N-methyltransferase (Homo sapiens) (UniProt P50135)", "sequence (P50135 whole entry, looked up)": "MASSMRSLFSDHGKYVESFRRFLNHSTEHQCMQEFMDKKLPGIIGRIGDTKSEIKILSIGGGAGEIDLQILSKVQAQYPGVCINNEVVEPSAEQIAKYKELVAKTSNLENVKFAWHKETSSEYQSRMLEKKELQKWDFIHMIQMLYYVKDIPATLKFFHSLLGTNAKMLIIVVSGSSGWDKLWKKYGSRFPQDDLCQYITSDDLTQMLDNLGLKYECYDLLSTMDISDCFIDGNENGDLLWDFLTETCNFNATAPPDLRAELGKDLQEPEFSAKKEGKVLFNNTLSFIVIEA", "assay": "Confirmatory Screen for Target Class Profiling of Small Molecule Inhibitors of Methyltransferases (AID 1745852);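 further: inhibitor potency for blocking SAH production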", "details": "MTase-Glo luminescence, SAH detection, recombinant enzyme; measured here: HNMT inhibition potency", "values": [
      {"smiles": "CCCC1=Nc2cc(C(=O)NCCCN3CCCCC3CC)ccc2Sc2ccc(C)cc21", "note": "(stereo not given)", "IC50": "15.2 µM [falling, partial curve]"},
      {"smiles": "Cc1cc(N(C)C)ccc1-c1nc2ccc(-c3nc4ccc(N5CCN(C)CC5)cc4[nH]3)cc2[nH]1", "IC50": "3.83 µM [falling, full curve]"},
      {"smiles": "CC(=O)Nc1cccc(-c2cc3c(cn2)CN(Cc2ccccc2)CCN3)c1", "IC50": "0.879 µM [falling, full curve]"},
      {"smiles": "Fc1cccc(-c2nnn3c2nc(NCCc2ccccc2)c2ccccc23)c1", "IC50": "19.2 µM [falling, partial curve]"},
      {"smiles": "O=C([C@@H]1CCCN(c2ccc3[nH]c(C4(n5cc(Cl)cn5)CC4)nc3n2)C1)N1CCCC1", "IC50": "24.1 µM [falling, partial curve]"},
      {"smiles": "CNc1cc(C2CC(NC(=O)COc3ccc(Cl)cc3C)C2)nc(N)n1", "note": "(stereo not given)", "IC50": "19.2 µM [falling, partial curve]"},
      {"smiles": "CC(C)NC(=O)c1ccccc1OCC1CCCN(Cc2cn(C)c3ccccc23)C1", "note": "(stereo not given)", "IC50": "19.2 µM [falling, partial curve]"},
      {"smiles": "CC(C)c1nc(-c2ccc(NC(=O)Nc3cccc(C(F)(F)F)c3)c3ccccc23)c2c(N)nccn12", "IC50": "21.5 µM [falling, partial curve]"},
      {"smiles": "COc1cccc(-c2cccc(C(=O)N3C[C@H](CO)C[C@H](CN(C)C)C3)c2)c1", "IC50": "10.8 µM [falling, partial curve]"},
      {"smiles": "CN(CCCNC(=O)CCCc1nnc2n3nc(-c4ccccc4)nc3c3ccccc3n12)Cc1ccccc1", "IC50": "5.41 µM [falling, full curve]"}
    ]}
  ]
}
